Experimental data: PubChem BioAssay AID360 (National Center for Advancing Translational Sciences (NCATS), 2006)
In all, about 48,000 compounds went through this assay and about 550 (1.1%) were called active. Not shown: some 4% with an inconclusive outcome. Cut-off read from the data, not from the text of the source: active = potency below about 15 µM; inconclusive = mostly about 16 µM to 33 µM; inactive = weaker than that. The list shows a part of the results.

target: Lysosomal acid glucosylceramidase (Homo sapiens) (UniProt P04062); test: Glucocerebrosidase; details: purified enzyme, resorufin glucoside fluorescence (screen aimed at inhibitors), 20 min;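 note: the screen sought inhibitors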
UniProt P04062, sequence (P04062 whole entry, looked up): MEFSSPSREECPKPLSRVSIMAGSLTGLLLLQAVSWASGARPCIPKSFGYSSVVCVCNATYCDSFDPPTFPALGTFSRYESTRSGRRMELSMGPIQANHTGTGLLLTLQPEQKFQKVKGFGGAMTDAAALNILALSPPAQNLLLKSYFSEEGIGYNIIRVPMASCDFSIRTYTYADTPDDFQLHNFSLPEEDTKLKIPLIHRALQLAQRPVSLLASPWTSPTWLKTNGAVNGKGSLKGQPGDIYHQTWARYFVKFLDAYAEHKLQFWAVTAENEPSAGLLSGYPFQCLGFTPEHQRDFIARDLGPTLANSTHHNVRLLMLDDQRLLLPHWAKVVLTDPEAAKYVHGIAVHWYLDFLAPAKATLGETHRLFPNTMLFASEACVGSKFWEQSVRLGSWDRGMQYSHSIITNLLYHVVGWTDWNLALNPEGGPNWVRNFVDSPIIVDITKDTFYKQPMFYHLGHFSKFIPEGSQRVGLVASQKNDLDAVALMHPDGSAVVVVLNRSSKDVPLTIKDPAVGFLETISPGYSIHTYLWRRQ
In short: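 Normal human glucocerebrosidase (0.2 nM final) was assayed with resorufin β-D-glucopyranoside (30 uM final) in 50mM citric acid/KH2PO4, 10mM sodium taurocholate, 0.01% tween-20, pH 5.9. Compounds were titrated; fluorescence (Ex 548, Em 600) read after 20 min at RT.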
Potency is the fitted concentration of half-maximal effect.

Potency, inactive:
CN(C)/C=N/c1c(C#N)cnn1-c1ccc(C(F)(F)F)cn1 > 76.9 µM, O=C(NCc1ccco1)[C@@H]1CSC2c3ccccc3C(=O)N21 (some centres undefined) > 76.9 µM, Cc1ccc(-c2nn(CC(=O)Nc3ccc4c(c3)nc3n4CCOC3)c(=O)c3ccccc23)cc1 > 76.9 µM, CCOC(=O)C1CCN(C(=O)c2cc(S(=O)(=O)N3CCOCC3)c(Cl)cc2Cl)CC1 > 76.9 µM, Cc1ccc(-n2nc3c(c2NC(=O)c2c(-c4ccccc4Cl)noc2C)CS(=O)(=O)C3)c(C)c1 > 76.9 µM, Cc1c(C(=O)O)sc2ncn(C)c(=O)c12 > 76.9 µM, CCOc1ccc(OCC)c(NC(=O)c2[nH]c(C)c(C(C)=O)c2C)c1 > 76.9 µM, CCOC(=O)CSc1cc(C)nc(N)n1 > 76.9 µM, Cc1ccc(CN(C(=O)c2c(F)cccc2F)C2CC(C)(C)NC(C)(C)C2)o1 > 76.9 µM, COc1ccc(CCn2c(C)cc(C(=O)CSc3nnnn3C)c2C)cc1 > 76.9 µM, COc1ccc(C)cc1NC(=O)CSc1nnc(-c2ccccn2)n1Cc1ccco1 > 76.9 µM, CCn1c(SCC#N)nc2c(c1=O)C1(CCCC1)Cc1ccccc1-2 > 76.9 µM, CCCC(=O)N(CCc1ccccc1)Cc1nc2ccccc2c(=O)[nH]1 > 76.9 µM, COc1cccc(OCc2nnc(SCC(=O)OC3CCCCC3)n2C)c1 > 76.9 µM, O=C(O)CCc1ccc(-c2ccccc2)n1CC(=O)O > 76.9 µM, COc1cc(C(=O)Nc2ccc3c(c2)OCO3)ccc1-n1cnnn1 > 76.9 µM, O=C(CC1COc2ccccc2O1)Nc1ccccn1 (centres undefined) > 76.9 µM, CCCOc1c(OC)cccc1C1CC(=O)Nc2cc(OC)c(OC)c(OC)c21 (centres undefined) > 76.9 µM, COc1ccc(CCNC(=O)C2CCCN(Cc3nc(-c4cccc(Cl)c4)oc3C)C2)cc1OC (centres undefined), O=C(CSc1nc2ccccc2c(=O)n1C1CC1)NCc1ccccc1 > 76.9 µM, CCCOc1ccccc1-c1nc(SCCC(=O)O)n[nH]1 > 76.9 µM, O=C(CCn1ccc2ccccc21)Nc1ccc(N2CCOCC2)cc1 > 76.9 µM, CC1(C)NC(=O)N(CCOCCOc2cccc(Oc3ccccc3)c2)C1=O > 76.9 µM, CCOC(=O)c1cnc(SCC(=O)Nc2cc(OC)cc(OC)c2)nc1N > 76.9 µM, O=C(Nc1nc2ccccc2n1CCN1CCCC1)C1CCCCC1 > 76.9 µM, CN(C)c1nc(SCCOC(=O)c2ccccc2)nc(N(C)C)n1 > 76.9 µM, O=C(CCNC(=O)c1ccc(Br)o1)NC1CCCC1 > 76.9 µM, CCOC(=O)C1=C2SCCN2C(=O)C(C#N)C1(C)C (centres undefined) > 76.9 µM, COc1ccc(N(C)C(=O)CCS(=O)(=O)c2cccc3nonc23)cc1 > 76.9 µM, O=C(c1ccco1)N1CCN(S(=O)(=O)c2ccc(S(=O)(=O)NC3CC3)cc2)CC1 > 76.9 µM, CCOC(=O)c1nn(-c2ccccc2)c(C(=O)OCC)c1N > 76.9 µM, COc1ccccc1OCC(=O)c1[nH]c(C)c(C(C)=O)c1C > 76.9 µM, COC(=O)c1nc2nc(C)cc(C(F)(F)F)n2n1 > 76.9 µM, CCOc1ccc(NC(=O)CSc2nnc(Cc3cccn3C)n2-c2ccc(OC)cc2)cc1 > 76.9 µM, CCn1c(CNc2ccc(F)cc2)nnc1SCC(=O)OC1CCCCC1, CC(C)CCNC(=O)CCCn1c(=O)[nH]c2ccc(Br)cc2c1=O > 76.9 µM, CCOc1ccccc1-c1nnc(SCC(=O)NC2CC3CCC2C3)n1CC (centres undefined) > 76.9 µM, Cc1cccc(OCC(=O)NCCN2CCOCC2)c1 > 76.9 µM, CCN1CCN(C(=O)CN(Cc2ccccc2)S(C)(=O)=O)CC1 > 76.9 µM, COc1ccc(C)cc1NC(=O)CSc1nnnn1Cc1ccccc1 > 76.9 µM, Cc1ccc(-n2ncc3c(=O)[nH]c(SCC(=O)N4CCOCC4)nc32)cc1 > 76.9 µM, COC(=O)C1=C(N)Oc2cc(C)n(CCN3CCOCC3)c(=O)c2C1c1cccnc1 (centres undefined) > 76.9 µM, Cc1ccc2nc(C(O)C(O)c3nc4ccc(C)cc4[nH]3)[nH]c2c1 (centres undefined) > 76.9 µM, CCC(=O)Nc1c(C(=O)Nc2cccc(OC)c2)oc2ccccc12 > 76.9 µM, COCCN(Cc1cc2cc3c(cc2[nH]c1=O)OCO3)C(=O)c1cccs1 > 76.9 µM, Cc1nn(CC(O)Cn2c3c(c4ccccc42)CCN(C)C3=O)c(C)c1Br (centres undefined) > 76.9 µM, COc1ccc2c(Cl)c(C(=O)NC3CCS(=O)(=O)C3)sc2c1 (centres undefined) > 76.9 µM, CCOC(=O)c1cc2n(n1)C(C(F)(F)F)CC(C)N2 (centres undefined) > 76.9 µM, CCNc1c2c3c(cccc3n(C)c1=O)C(=O)c1ccccc1-2 > 76.9 µM, Cn1c(=O)c2c(ncn2CC(=O)N(Cc2ccccc2)c2ccccn2)n(C)c1=O > 76.9 µM, c1ccc(-c2cccc(-c3ccccn3)n2)nc1 > 76.9 µM, COc1ccc(OC(C)C(=O)NC2CC(C)(C)NC(C)(C)C2)cc1 (centres undefined) > 76.9 µM, O=C(c1cc2cc3ccc(Cl)cc3nc2o1)N1CCN(Cc2ccc3c(c2)OCO3)CC1 > 76.9 µM, O=C(c1cc2c(=O)oc3ccccc3c2s1)N1CCN(c2ncccn2)CC1 > 76.9 µM, CCc1ccc(CCC(=O)Nc2ccc(C)c(C)c2)o1 > 76.9 µM, CCOC(=O)c1sc(C)c2c1NC1(CCCCC1)NC2=O > 76.9 µM, Cn1c(=O)c2nnn(/N=C(\c3ccccc3)C3CC3)c2n(C)c1=O > 76.9 µM, CCOC(=O)c1ccc(NC(=O)CSc2nnc(COc3ccccc3OC)n2CC)cc1 > 76.9 µM, CC(C)NC(=O)C1CCN(C(=O)C(C(=O)c2ccccc2)n2cc(Cl)ccc2=O)CC1 (centres undefined) > 76.9 µM, CC(=O)Nc1ccccc1Sc1ccccc1 > 76.9 µM, COc1cccc(C2/C(=C(\O)c3c(C)nc4c(C)cccn34)C(=O)C(=O)N2CCCN(C)C)c1OC (centres undefined) > 76.9 µM, Nc1c(C(=O)OCC2CCCO2)c2nc3ccccc3nc2n1C1CCCC1 (centres undefined) > 76.9 µM, N#Cc1cccc(NC(=O)Nc2cccs2)c1 > 76.9 µM, CN(CCCNC(=O)C1CCN(S(=O)(=O)N2CCC3(CC2)OCCO3)CC1)Cc1ccccc1 > 76.9 µM, COc1ccc(N2CCCn3c2nc2c3c(=O)n(CCN3CCOCC3)c(=O)n2C)cc1 > 76.9 µM, CCN(CC)c1ccc2c(c1)CCCN2 > 76.9 µM, O=C(c1noc2c1CCc1ccccc1-2)N1CCCc2ccccc21 > 76.9 µM, O=C(CS(=O)(=O)Cc1ccccc1)N1CCc2ccccc21 > 76.9 µM, O=C(CN1C2CCCC1CC(NC(=O)c1ccco1)C2)Nc1ccccc1C(F)(F)F (centres undefined) > 76.9 µM, COc1ccc(-c2nc(SC)n(C(=O)c3ccco3)n2)cc1 > 76.9 µM, Cc1ccc(N(CC2=NCCN2)c2cccc(O)c2)cc1 > 76.9 µM, Cn1nnnc1SCc1nnc(-c2ccc(Cl)cc2)o1 > 76.9 µM, Cc1cccc(OCCC(=O)NCC(c2ccccc2)N(C)C)c1 (centres undefined) > 76.9 µM, CN(C)c1ccc(NC(=O)Cn2ncn3c(cc4ccccc43)c2=O)cc1 > 76.9 µM, O=C(C1CC1)N1CCc2cc(Br)cc(S(=O)(=O)NCCN3CCOCC3)c21 > 76.9 µM, CCOC(=O)C(NCc1ccccn1)(NC(=O)c1cccnc1)C(F)(F)F (centres undefined) > 76.9 µM, CCCCn1c(=O)[nH]c(=O)c2c1nc(CN1C(=O)c3ccccc3S1(=O)=O)n2CCC > 76.9 µM, CC1Cc2ccccc2N1S(=O)(=O)c1cccc(C(=O)NC2CC2)c1 (centres undefined) > 76.9 µM, Cc1cc(NC(=O)CSc2nc3ccsc3c(=O)n2Cc2ccccn2)n[nH]1 > 76.9 µM, c1cc(-c2nc3ccccc3o2)nc(-c2nc3ccccc3o2)c1 > 76.9 µM, O=c1c2ccccc2ncn1C1CCCCC1 > 76.9 µM, COc1ccc(C2NC(c3ccc(OC)c(OC)c3OC)C(C)C(=O)C2C)c(OC)c1OC (centres undefined) > 76.9 µM, CC(C)Cc1nnc(NC(=O)CCC(=O)N2CCOCC2)s1 > 76.9 µM, Cc1cc(C)cc(CC2CC(=O)N(c3ccc4c(c3)OCCO4)C2=O)c1 (centres undefined) > 76.9 µM, Cn1c(=O)[nH]c(=O)c2c1ncn2CCN1CCOCC1 > 76.9 µM, Cc1ccn2cc(C(=O)NC3CCN(Cc4ccccc4)CC3)nc2c1 > 76.9 µM, CCCc1cc(-n2ccnc2)n2c(nc3ccccc32)c1C#N > 76.9 µM, COCc1cc(=O)[nH]c(Nc2nc(C)c3ccc(C)cc3n2)n1 > 76.9 µM, O=C(Cn1c(=O)c2c(ncn2Cc2ccccc2)n(Cc2ccccc2)c1=O)N1CCCC1 > 76.9 µM
